Assay results published in the supplement of paper PMC11417369.
This is one part of the list.

These sequences were tested on PfSIP2 AP2 domain 1 (GST-tagged) (assay: gcPBM binding intensity (ln(normalized median fluorescence intensity)); higher = stronger DNA binding).
Method in brief: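 For binding intensity, the highest Masliner-normalised natural-log median intensity across replicate spots of either probe orientation was taken. Protein bound to the array was stained with Alexa488 anti-GST antibody and scanned at 488 nm. The protein, GST-tagged P. falciparum DNA-binding domains from E. coli at about 25 μg on average, had been applied for 1 h to an Agilent 4 × 180k array of primer-extended double-stranded 36-bp intergenic genomic probes and negative controls.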

Sequence	gcPBM binding intensity (ln)
ATCTATGGAGCTTATACACACTTTTATATTTTAACA [CACACA_site5994]	7.06
TTTGAATTTTTATATACACACATTATTATATTATAT [CACACA_site1593]	7
TATTTATTTGTGGGGTGTACGAAATTTTTTTTTTTT [XGTACX_site5091]	7.18
ATTATACATTTTAGATGTACATATTTTAAATTTAAT [XGTACX_site5174]	6.97
ATATTTTGTATAATCACACACACTATTCTTAAATAG [CACACA_site7270]	7.08
AGAAATTAATCGAAGTGTACATATAAACATACATAT [XGTACX_site5518]	6.9
AACAAACAAACAAATATACACACTTTTGTATAAAGT [CACACA_site3509]	6.81
CCCACATAAAAAAATAAACACACATATGTATATATA [CACACA_site9040]	7.03
AAATGGGCTTATTTATGTACTTAAATATATCTACCC [XGTACX_site3823]	6.94
TAATCAATTCAATATTGTACGATATTTACCTTTAAA [XGTACX_site4678]	6.95
TACATATATATATACACACATACATATATATACGCA [CACACA_site792]	7.08
AACCTCGTGTAATATGCATGTTCCCTTCAAAGTTTT [TGCATGCA_site459]	6.75
AAAAAAATCTATATTACACACATATATACCTATATA [CACACA_site7464]	6.84
TACATTGTATACATATGTACACATATATATATATAT [XGTACX_site6174]	9.37
TATTTATGTTATAATTGTACAATAAACAAATTTTTT [XGTACX_site5306]	6.93
AGCAGGATTAAAAAAAGTACAAGAATTAATATTTAA [XGTACX_site3413]	6.79
ATTTTTTATTGTTATAAAAAAAAAATTAAACAATTA [CACACA_negctrl_site1077]	6.75
AATTATTATCCCCTCACACACAAAAATAAAAAGAAT [CACACA_site2885]	7.56
TATATCTATAATATTACACACATATATTTATATTTT [CACACA_site7595]	7
AAAGAAAATAACAAAATTTTGAAAACATCACATTCG [CACACA_negctrl_site89]	6.92
AAATTAAAGGCATAAAAGAAAATATTTAATAAAAAA [CACACA_negctrl_site1689]	6.57
ACCAGTTCTTAATACAAATATGTACATATATATATA [GTGCAC_negctrl_site56]	9.11

Sequence	gcPBM binding intensity (ln)
TTTTTTTTAATTGTGATACGTATATTATTTAATGAT [CACACA_negctrl_site38]	7.16
TATTCGTCTTTTTTCTCACACACCCTTTTTATTAAA [CACACA_site2508]	7.5
TATTTCATCTTATTTTAGGAAAAACTAATATATAAG [CACACA_negctrl_site1823]	6.91
AAATTTAGGAACATTATATATATATATATATATATA [CACACA_negctrl_site862]	9.4
GAACATTTGAAATATGCACACATGTATAAACCTACA [CACACA_site2654]	7.47
TAAAAATAAAGAAAATGTACATAAATAATAATACAT [XGTACX_site2278]	6.99
CAAAAAAAGGAAAAGATACACACCGTAAATTAAAAT [CACACA_site3612]	6.73
TGTGCATAATTTTGTGCACACCACGCTAATAATTTT [CACACA_site2915]	10.9
GGAATAAATAATATTATACACACGTATATTATTATA [CACACA_site2435]	6.83
AAGCTTTCATAAAGATGTACTTTTTAAAAATAATCT [XGTACX_site5725]	7.11
AAAATAAAAAATTAATGTACTTAGAATTGTCACTAA [XGTACX_site1346]	6.79
TTTTTCATGTTTATTAGTACATATATTAAGAATGGA [XGTACX_site3493]	7.32
ACCTATTTATAATAGTGTACGTACAAATTTGTTTAC [XGTACX_site8176]	8.33
TTTTGTAAATATATATGTACATATATATATATATAT [XGTACX_site5803]	9.12
AATTTGTTGAAACACACACACACATACATATATATA [CACACA_site2287]	7.39
TAAAATAATAAACAGAAGAAATCATTCATATAAAAA [XGTACX_negctrl_site502]	6.59
ATAAATATATGATAAAGTACATATTTATATAATAAA [XGTACX_site7263]	6.88
TGATATTATATATATACACACATGTATGTATATATA [CACACA_site1364]	6.88
ATATTTATTTATAATTGTACTAATAATATATTTTAA [XGTACX_site587]	6.89
ATGTATCTATATATATGTACACATATTTTAATTAAA [XGTACX_site3673]	7.34
TATATACACGCACATACACACAAATAAAAAAACACC [CACACA_site7578]	8.23
TGTGTTGTAATTAAAACACACATGAAAAAATTAAAA [CACACA_site51]	6.9

Sequence	gcPBM binding intensity (ln)
GTATTATTCTATAGAAGTACAGTATATTATTATTTA [XGTACX_site5073]	7.6
TACAACAAGTAATGGTGTACATTATATTATGTAATA [XGTACX_site1194]	6.98
TATAACAATTTTTATGCATGCGACTATAATATTTTT [TGCATGCA_site508]	6.81
TAAGGATTGGTATAAAGTACAGGAGTAAATTGAAAA [XGTACX_site8525]	7.06
TACATATTGAATAAGACACACATATATATATATATA [CACACA_site1878]	9.24
CATACACATATATATTGTACACATATATGTATGTAT [XGTACX_site4030]	7.07
ATATTTTTTTTTTATTGTACCCTCATAAAAGAAAAG [XGTACX_site773]	7.23
AATAAATATAAATACACACCCATATAAATATAAATA [CACACA_site7264]	6.87
ACAAAGATAAAACATAAAATATATCAAACATAAAAT [XGTACX_negctrl_site198]	7.05
AAAAAAAATACATGTTGTACGGTACAAATATAAAGT [XGTACX_site2863]	7.53
AAAATAATAAAAAAAAAAAAAAAAAAAAAAAAGTAT [TGCATGCA_negctrl_site193]	6.81
ATATATCTTCTTTGCACACTTAAAGGGAAGTGATAA [CACACA_site342]	7.35
AAAAAAATAATAAAATGTACAAATAAACACATAAAG [XGTACX_site5102]	7.24
AAATAAAATAAAACAACACACACGAATGTATAAATA [CACACA_site885]	6.93
TAATGTATCTAAAATTGTACAAATATAAATCTAAAT [XGTACX_site1197]	6.97
CGCGCCCAGAAACACACACACACACCGATATATATA [CACACA_site5250]	7.62
TTATTTATGAAGTATACACACAATATATATATATAT [CACACA_site1248]	8.99
TTAATCCACAGACACACACACACAAAATAAAATACA [CACACA_site244]	7.22
TAGTTCTTTTAATTTAGTATTATACAATATTGGAAA [CACACA_negctrl_site521]	6.81
AATATATTAAATATTACACACATACATTTAGTGTAA [CACACA_site5145]	7.07
TATATATTAAACTTTGCACACATAATTTAACTACAA [CACACA_site3440]	7.4
TTTATTTTATTCACTATCATAAGCAAAACTTAAACA [GTGCAC_negctrl_site287]	6.88

Sequence	gcPBM binding intensity (ln)
ATTAATAATATTACATGTACATAATATAATTGAAAA [XGTACX_site5084]	7.14
TAGTTAATATGATTATGTACATATATATATTAATTT [XGTACX_site1750]	7.13
TTAGATATTATTATATGTACATATTATATGTATTAT [XGTACX_site3836]	7.02
ATTTTTTTTTTTTTTTTTTTTTTTTTTTTTGTTGTT [CACACA_negctrl_site1313]	7.02
TGTATATGAAAAAATAGTACTCATATAAATATCTTT [XGTACX_site6542]	6.89
ATAATATATTTATAAACACACAAAAAAAGTTATATA [CACACA_site6831]	6.95
ATATACATATCAATGTAATATTATATACTTTTTTAG [CACACA_negctrl_site816]	6.77
AAAAAAATAAATAAATGTACATATATAAAACATTGT [XGTACX_site2136]	6.94
ATATAATTATATTCCATACACACATATATTTAAAGG [CACACA_site2958]	7.04
AAACGAGAACATAATAAATACATAAATAAATAAATA [GTGCAC_negctrl_site433]	6.77
ATATTTTCCCTTGTTTTACACACGTGCTGATATGAG [CACACA_site8672]	7.42
AATTTGAAATATGTGGTGCAGTTATATAATATGTTT [GTGCAC_site9885]	10.3
TGTAGTCTGGAGAAAAGTACACAGTATCTGGTAACC [XGTACX_site2033]	7.09
ATATAGAATAAAACTATACACACCTATATTTAAACA [CACACA_site1902]	6.81
ATATAAAAAAATAATAAATAAATAAAAAGATTTCTT [XGTACX_negctrl_site110]	6.78
CTTGTATAGAAACACACACACACTTTCTTTTTTTAA [CACACA_site1964]	6.95
TATATTAATAAAGGTACTACACGGAAATGGAAATAT [XGTACX_site7760]	7.54
AACAAATACGAACACACACACACACTAAAAAAAAAA [CACACA_site6386]	7.27
AGGATATAATACCATACACACATTTATAAAATAACA [CACACA_site1930]	7.15
ATATATATTATATATATATATATATATATATATATA [CACACA_negctrl_site493]	9.06
ATAATATGAAAACACACACACACACCCAAAAAAAAA [CACACA_site2011]	7.13
